According to article PMC4336329 (PLoS ONE, 2015):
Among all 310,000 compounds or so, about 2,200 (0.71%) showed an effect of 50% or more. Effects have a minus sign here. Some of the results follow.

Molecular target: human ether-à-go-go-related gene (hERG) potassium channel (human, UniProt Q12809)
Test: primary screen, population patch clamp on CHO cells stably expressing hERG

human ether-à-go-go-related gene (hERG) potassium channel, sequence (Q12809 whole entry, looked up): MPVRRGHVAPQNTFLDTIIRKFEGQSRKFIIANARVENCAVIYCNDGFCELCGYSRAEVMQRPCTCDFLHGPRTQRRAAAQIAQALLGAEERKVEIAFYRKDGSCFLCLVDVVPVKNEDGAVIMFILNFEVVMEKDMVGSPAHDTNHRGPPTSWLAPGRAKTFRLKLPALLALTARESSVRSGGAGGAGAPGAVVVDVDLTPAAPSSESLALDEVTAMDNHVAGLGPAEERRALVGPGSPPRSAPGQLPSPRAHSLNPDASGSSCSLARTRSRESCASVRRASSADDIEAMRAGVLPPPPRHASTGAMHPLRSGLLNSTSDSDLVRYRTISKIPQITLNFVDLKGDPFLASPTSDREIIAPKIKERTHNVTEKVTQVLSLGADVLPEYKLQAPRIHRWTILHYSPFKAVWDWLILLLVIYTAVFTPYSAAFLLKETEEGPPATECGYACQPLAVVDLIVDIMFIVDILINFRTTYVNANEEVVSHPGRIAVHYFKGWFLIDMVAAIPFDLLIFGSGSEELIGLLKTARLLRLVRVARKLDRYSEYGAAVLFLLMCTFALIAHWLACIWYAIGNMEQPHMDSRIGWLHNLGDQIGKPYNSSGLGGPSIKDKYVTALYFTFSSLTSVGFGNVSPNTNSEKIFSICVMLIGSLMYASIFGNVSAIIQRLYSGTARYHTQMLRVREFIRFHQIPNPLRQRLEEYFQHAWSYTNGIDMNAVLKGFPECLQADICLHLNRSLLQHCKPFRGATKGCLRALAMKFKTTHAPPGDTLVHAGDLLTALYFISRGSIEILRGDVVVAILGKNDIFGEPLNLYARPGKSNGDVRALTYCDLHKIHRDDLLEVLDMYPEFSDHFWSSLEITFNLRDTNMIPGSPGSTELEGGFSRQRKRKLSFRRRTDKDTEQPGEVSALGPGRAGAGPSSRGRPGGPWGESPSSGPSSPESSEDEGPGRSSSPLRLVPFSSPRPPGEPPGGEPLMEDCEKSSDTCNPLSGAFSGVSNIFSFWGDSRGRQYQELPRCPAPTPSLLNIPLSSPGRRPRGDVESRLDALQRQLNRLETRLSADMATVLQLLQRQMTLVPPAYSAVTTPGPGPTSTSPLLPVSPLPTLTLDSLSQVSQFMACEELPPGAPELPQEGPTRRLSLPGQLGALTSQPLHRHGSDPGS

Row | Structure (SMILES) | hERG current change (%, negative = inhibition) at 1uM [%]
1 | O=C1CC(N2CCC(c3nc4ccccc4o3)CC2)C(=O)N1Cc1cccs1 (centres unmarked) | -9.95
2 | O=Cc1cn(CC(=O)N2CCOCC2)c2ccccc12 | 11.1
3 | O=C(COC(=O)c1ccc(NS(=O)(=O)c2ccc(Br)s2)cc1)NC1CCCC1 | 10.9
4 | CN(C)c1cc(-c2ccc(Cl)c(Cl)c2)oc(=O)c1Cl | 13.4
5 | COC(=O)CCC(=O)NC1CC(C)(C)Cc2c1cnn2-c1ccccc1 (centres unmarked) | 0.508
6 | CN=C1SC(CC(=O)Nc2sc(C)c(C)c2C(=O)OC)C(=O)N1C (centres unmarked) | 2.13
7 | CN(c1ccc(C(=O)Nc2ccc(F)cc2F)cc1)S(=O)(=O)c1ccccc1 | 6.03
8 | COc1ccc(CCNC(=O)CN2C(=O)NC(CCSC)C2=O)cc1 (centres unmarked) | 7.53
9 | O=C(Nc1ccc2c(c1)OCCO2)C1CCN(C(=O)c2ccc(Br)cc2)CC1 | 1.28
10 | COC(=O)c1c(NC(=O)c2ccccc2OC)sc(C(=O)N2CCOCC2)c1C | 4.67
11 | CCN(CC)S(=O)(=O)c1cc(C(=O)OCC(=O)Nc2cccc(S(=O)(=O)N(C)C)c2)ccc1F | 14.4
12 | COc1cccc(/C=C2\SC(=S)N(CC(=O)N(C)C3CCS(=O)(=O)C3)C2=O)c1 (centres unmarked) | 2.27
13 | O=C(Cc1ccc(Br)cc1)N1CCN(C(=O)c2ccccc2)CC1 | -4.11
14 | CCC(=O)Nc1ccc2c(c1)nc1n2CCN(CCOC)C1 | 16
15 | O=[N+]([O-])c1ccc(Cl)cc1CN1CCCCCC1 | 6.63
16 | CCOC(=O)c1ccc(NC(=O)Cn2ccc([N+](=O)[O-])n2)cc1 | -12.1
17 | COCC(=O)Nc1ncc(S(=O)(=O)c2ccc([N+](=O)[O-])cc2)s1 | 3.46
18 | O=C(O)c1ccc(N/N=C/C2=C(N3CCOCC3)C(=C\c3ccccc3)/CC2)cc1 | 2.74
19 | Cn1c(CNC(=O)CNS(=O)(=O)c2ccc(F)cc2F)cc(=O)n(C)c1=O | 29.9
20 | N#Cc1ccc(CN2CCN(C(=O)CCNS(=O)(=O)c3ccc(F)c(F)c3)CC2)cc1 | -62.3
21 | CCOc1cccc(-c2nnc3n2N=C(c2cc(OC)ccc2OC)CS3)c1 | 16.7
22 | CCC(=O)Oc1ccc2c(C)cc(=O)oc2c1C | 7.33

Row | Structure (SMILES) | hERG current change (%, negative = inhibition) at 1uM [%]
23 | COc1ccc(NC(=O)C2CCCN(c3nn4c(=O)cc(C)nc4s3)C2)c(OC)c1 (centres unmarked) | 15
24 | Cc1ccc(-c2nc(C3CCN(S(=O)(=O)c4ccc(C(C)(C)C)cc4)CC3)no2)cc1 | 14.4
25 | CN1CCN(C(=O)c2cn(-c3ccccc3)nc2-c2cccs2)CC1 | 3.79
26 | Cn1c(=O)c2c(nc(NCCOc3ccc(F)cc3)n2C)n(C)c1=O | 1.51
27 | N#Cc1c(NC(=O)CSc2nc3c(c(C(F)(F)F)n2)CCc2ccccc2-3)sc2c1CCCC2 | -5.59
28 | CCOC(=O)N1CCC(NCCNC(=O)c2ccco2)CC1.O=C(O)C(=O)O | 12.6
29 | COc1cc(NC(=O)Nc2ccccc2OC)c(OC)cc1NC(=O)CN1CCCCC1 | 15.2
30 | CCn1ccnc1CN(C)Cc1nc(-c2ccc(C(=O)OC)cc2)no1 | 3.41
31 | O=S(=O)([O-])c1cc(OS(=O)(=O)c2ccccc2)cc2ccccc12.[Na+] | 17.8
32 | Cc1cccc(NC(=O)CSc2nnc(C3CC3)n2CC2CCCO2)c1 (centres unmarked) | 10.2
33 | Cc1cc2c(cc1S(=O)(=O)Nc1cccc(F)c1C)NC(=O)CO2 | 12
34 | COc1ccc(C(C(=O)NC2CCCC2)N(C(=O)c2ccoc2C)c2ccc(C)cc2)cc1 (centres unmarked) | -2.57
35 | Cc1cc(Cl)ccc1OCC(=O)NNC(=O)c1cccnc1 | 14.5
36 | COc1ccccc1NC(=S)N(CCN1CCOCC1)Cc1ccccc1F | 10.9
37 | O=C1/C(=C/c2cccnc2)SC(=S)N1c1ccccc1 | 16.4
38 | Cc1c(CC(=O)N2CCN(C(=O)C3COc4ccccc4O3)CC2)c(=O)oc2cc(O)c(Cl)cc12 (centres unmarked) | 0.833
39 | COc1ccc(C(=O)NC(=S)Nc2ccc([N+](=O)[O-])cc2C)cc1OC | -6.85
40 | CC(C)(C)c1ccc(C(=O)Nc2ccc(NC(=O)c3ccco3)cc2)cc1 | 5.63
41 | COc1cc2c(=O)n(Cc3ccccc3)c(=O)n(CC(=O)C(C)(C)C)c2cc1OC | -0.726
42 | O=C1S/C(=C\c2ccc(N3CCOCC3)o2)C(=O)N1Cc1c(F)cccc1Cl | 6.4
43 | CCOC(=O)c1sc(NC(=S)NC(=O)C2CC2)cc1C | 14.4
44 | CCCNC(=O)Cn1cnc2sc(C(=O)N3CCC4(CC3)OCCO4)c(C)c2c1=O | 13.4

Row | Structure (SMILES) | hERG current change (%, negative = inhibition) at 1uM [%]
45 | Cc1ccccc1Nc1nnc(SCc2cc(=O)n3ccsc3n2)s1 | 2.8
46 | COc1ccccc1Nc1nc(N(C)c2ccccc2)nc(N)c1[N+](=O)[O-] | 8.5
47 | CCOC(=O)c1cc(-c2ccccc2)nc2c1c(C)nn2-c1ccccn1 | 4.42
48 | O=c1[nH]c(=S)n(-c2ccccc2Cl)c(O)c1C=NCCN1CCNCC1 | 10.1
49 | COc1ccc(C(=O)NCCS(=O)(=O)NCc2ccco2)cc1 | 18.4
50 | C=CCN(c1ccccc1)S(=O)(=O)c1cccc(C(=O)NCC(c2ccc(F)cc2)N2CCOCC2)c1 (centres unmarked) | -0.427
51 | CCOc1ccc(NC(=O)c2ccc(CC)s2)c([N+](=O)[O-])c1 | 6.76
52 | CCCCn1c(C(C)O)nc2ccccc21 (centres unmarked) | 11.9
53 | COc1ccc(/C=C/c2ccccc2)cc1[C@H]1[C@@H]2C=CCC[C@@]2(C)C(=O)N1Cc1ccccc1 | 11.7
54 | CCCN1C(=O)/C(=C/c2ccc(N3CCOCC3)cc2)NC1=S | 1.14
55 | COC(=O)c1cc(CN2CCN(c3ccccc3C)CC2)ccc1O.Cl | 6.31
56 | Cc1cc(C)cc(NC(=O)CCCN2C(=O)C(c3ccccc3)Oc3cccnc32)c1 (centres unmarked) | 27.6
57 | O=C(Nc1ccccn1)c1nc(-c2ccccc2)n(-c2ccccc2)n1 | -1.7
58 | c1ccc(SCc2nc(-c3ccccn3)no2)cc1 | -6.25
59 | O=C(N/N=C/c1ccco1)c1cnccn1 | 10.1
60 | Oc1c(-c2cc(-c3ccco3)[nH]n2)ccc2ccccc12 | 12
61 | N=C1/C(=C\c2ccc(SCc3ccccc3)o2)C(=O)N=C2SC=NN12 | 17.4
62 | CCOc1ccc2[nH]c(SCC(=O)OC)c([N+](=O)[O-])c2c1 | 5.41
63 | COC(=O)NNC(=O)C1CCC(C)CC1 (centres unmarked) | 1.23
64 | C=C[C@@]1(C)CC(=O)[C@]2(O)[C@@]3(C)[C@@H](O)CCC(C)(C)[C@@H]3[C@H](O)[C@H](OC(C)=O)[C@@]2(C)O1 | 4.98
65 | Cc1cc(NC(=O)COC(=O)C2CC(=O)N(c3cccc(C)c3C)C2)no1 (centres unmarked) | 11
66 | CCOC(=O)c1cc(C(=O)c2ccccc2O)cn2c(=O)c3c(C)c(C)sc3nc12 | 5.26

Row | Structure (SMILES) | hERG current change (%, negative = inhibition) at 1uM [%]
67 | O=C(C1CCCN(Cc2ccc3c(c2)OCO3)C1)N1CCCC1.O=C(O)C(=O)O (centres unmarked) | 9.76
68 | CCNc1nc(NCC)n2c(SCc3ccc(F)cc3)nnc2n1 | 10.6
69 | Cc1ccc(C2CN(C)C3(C(=O)Nc4ccccc43)C23COc2ccccc2C3=O)cc1 (centres unmarked) | 9.13
70 | CCOc1cc(/C=N\NC(=O)CN2CCOCC2)ccc1OCc1ccc(F)cc1 | -2.13
71 | CCCCNC(=O)c1c(N)n(CCCOC)c2nc3ccccc3nc12 | 7.61
72 | COCCn1c(-c2ccc(NC(C)=O)cc2)nc2c1c(=O)[nH]c(=O)n2CC(C)C | 10.8
73 | O=C(Nc1ccc2c(c1)nc1n2CCN(Cc2ccccc2)C1)NC1CCCCC1 | 1.79
74 | O=[N+]([O-])c1ccc(NNC(=S)Nc2ccccc2)cc1 | -2.75
75 | CCOc1ccc(-c2nnc3ccc(SCC(=O)Nc4cc(C)on4)nn23)cc1 | 15.2
76 | O=C(O)COc1ccc(Cl)cc1Cl | 8.1
77 | Cc1cc(=O)c(C(=O)OC(C)C(=O)NC(N)=O)nn1-c1ccc(Cl)cc1 (centres unmarked) | 18.2
78 | Cc1cc(O)cc2c(=O)c3ccccc3sc12 | 3.61
79 | CN(C)C(=O)CN1C(=O)NC2(CCc3ccccc32)C1=O (centres unmarked) | 14.9
80 | CC(OC(=O)C1CC=CCC1C(N)=O)C(Cl)=C(Cl)Cl (centres unmarked) | 16.4
81 | O=C(N/N=C/c1ccc[nH]1)c1ccc(Cl)cc1 | 3.91
82 | COc1ccc(C(=O)N/N=C(\Cc2ncc[nH]2)c2ccccc2)cc1 | 12.8
83 | CC(=O)O.COc1c(O)ccc(C2NC(=O)NC(C)=C2C(=O)Nc2ccccc2C)c1[N+](=O)[O-] (centres unmarked) | 30.2
84 | C[C@H](NC(=O)c1ccc(Cl)cc1)C(=O)NCCc1ccc(S(N)(=O)=O)cc1 | 5.4
85 | Cc1nc(N2CCOCC2)nc(N2CCCCC2)c1[N+](=O)[O-] | 13.8
86 | Cc1c(NC(=O)CCSc2ccc(Cl)cc2)c(=O)n(-c2ccccc2)n1C | -2.6
